Drawing on PMC12135187, “A role for pH dynamics regulating transcription factor DNA-binding selectivity”, this text covers binding signal for 196 sequences.

The other results are listed elsewhere or left out.

For the experiment, the target named is T1, FOXC2 DBD WT (UniProt Q99958 72-172).
T1 sequence: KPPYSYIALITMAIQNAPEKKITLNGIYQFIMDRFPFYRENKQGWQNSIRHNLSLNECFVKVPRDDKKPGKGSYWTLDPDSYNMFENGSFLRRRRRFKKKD
Description: SELEX-seq (GST pull-down, four rounds, 16-nt random library); pH 7.0; 20 mM HEPES, 140 mM KCl, 0.05 mM TCEP-HCl, pH 7.0, room temperature, 30 min; 2.5 uM GST-FOXC2 DBD, 0.25 uM DNA library; high values mean tight binding. Conditions: protein: recombinant; tags: N-terminal GST (pGEX-6P-2); dsDNA, one strand shown. The method in brief: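 GST-tagged FOXC2 DNA-binding domain (E. coli-expressed, glutathione-purified) was incubated with a DNA library carrying a 16 bp randomized region, at 0.25 μM DNA and 2.5 μM protein, for 30 min at RT in 20 mM HEPES, 140 mM KCl, 0.05 mM TCEP–HCl, pH 7. Complexes were captured on glutathione Sepharose beads, washed, heat-eluted and PCR-amplified over four rounds. Initial and selected libraries were Illumina MiniSeq sequenced. Relative enrichment came from the Bioconductor SELEX R package.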
Regarding AACTAC, the binding signal stood at 0.312 relative enrichment.
The figure for CAACAG is 0.249 relative enrichment.
For TTTCGC, the binding signal came out at 0.396 relative enrichment.
As for ATCAAT, the figure is 0.463 relative enrichment; as for TGTACA, 0.376 relative enrichment.
As for TCATCA, the figure is 0.526 relative enrichment; as for CAGTTC, 0.412 relative enrichment; as for ATCAAC, 0.291 relative enrichment.
The figure for AACCAC is 0.351 relative enrichment; for AAGACA it is 0.365 relative enrichment.
In the case of CATATG, the binding signal came out at 0.262 relative enrichment.
With TAAAGA, the binding signal came to 0.341 relative enrichment.
Take CACTCT: the binding signal was 0.501 relative enrichment.
AGTATC: the binding signal came to 0.447 relative enrichment.
As for ATATCG, the figure is 0.288 relative enrichment; as for AGAATA, 0.372 relative enrichment; as for CATCAG, 0.595 relative enrichment.
The figure for AACTCG is 0.415 relative enrichment; for CAATCC it is 0.386 relative enrichment.
Regarding ATACGC, the binding signal amounted to 0.457 relative enrichment.
The figure for TCTCAA is 0.295 relative enrichment.
With AATTTG, the binding signal turned out to be 0.278 relative enrichment.
The figure for TCTAGT is 0.535 relative enrichment; for AGCACT it is 0.486 relative enrichment; for CCCTTA it is 0.461 relative enrichment.
For ATCTTC, the binding signal worked out at 0.665 relative enrichment.
The figure for CAAGCC is 0.418 relative enrichment; for CGTTTA it is 0.415 relative enrichment; for AATAAC it is 0.481 relative enrichment.
For CTCCTA, the binding signal amounted to 0.467 relative enrichment.
Consider GTTGTA, for which the binding signal came out at 0.31 relative enrichment.
For ACTGTC, the binding signal came to 0.296 relative enrichment.
The figure for CATTCC is 0.643 relative enrichment; for ACGCTA it is 0.34 relative enrichment.
Turning to TACTGC, the binding signal stood at 0.493 relative enrichment.
For the sequence ACCTTG, the binding signal worked out at 0.346 relative enrichment.
For CTTTCT, the binding signal was determined as 0.471 relative enrichment.
As for GATCAT, the figure is 0.546 relative enrichment; as for CAAGTG, 0.357 relative enrichment; as for ATTTGA, 0.433 relative enrichment.
As to TTAAAA, the binding signal is 0.212 relative enrichment.
For AATGGT, the binding signal was found to be 0.376 relative enrichment.
For ATTTGC, the binding signal came out at 0.386 relative enrichment.
As for ATCCGT, the figure is 0.404 relative enrichment; as for AAACGT, 0.254 relative enrichment.
CACCTC: the binding signal stood at 0.731 relative enrichment.
Regarding TTCGCT, the binding signal turned out to be 0.574 relative enrichment.
Turning to AACCCA, the binding signal stood at 0.314 relative enrichment.
On to ATTAGC, for which the binding signal came to 0.357 relative enrichment.
The figure for AGCATA is 0.337 relative enrichment; for ATTTGG it is 0.408 relative enrichment.
As for CATGTA, the figure is 0.339 relative enrichment; as for CTCAGT, 0.598 relative enrichment.
As for TAAGCA, the figure is 0.814 relative enrichment; as for AGATAA, 0.307 relative enrichment.
With ATGCCT, the binding signal came to 0.563 relative enrichment.
Take CATGCA: the binding signal is 0.513 relative enrichment.
As to GTCTTA, the binding signal is 0.348 relative enrichment.
Take ACAGCG: the binding signal is 0.295 relative enrichment.
Regarding CGATAA, the binding signal amounted to 0.42 relative enrichment.
As for ACAAAC, the figure is 0.587 relative enrichment; as for AAGCTC, 0.44 relative enrichment; as for AACCAA, 0.348 relative enrichment.
The figure for CTACAC is 0.417 relative enrichment.
For AAATAG, the binding signal turned out to be 0.534 relative enrichment.
Consider CTCTTT, for which the binding signal came to 0.469 relative enrichment.
For the sequence GATGTA, the binding signal stood at 0.389 relative enrichment.
Turning to TTACAA, the binding signal was determined as 0.36 relative enrichment.
The figure for ATTAAA is 0.406 relative enrichment; for ATACAC it is 0.394 relative enrichment; for CCAAGT it is 0.388 relative enrichment.
As for AAAGGT, the figure is 0.302 relative enrichment; as for AACACC, 0.399 relative enrichment; as for GATACA, 0.366 relative enrichment.
In the case of TATCCA, the binding signal was 0.362 relative enrichment.
As for ACATTC, the figure is 0.499 relative enrichment; as for TTAGCC, 0.439 relative enrichment.
Consider AAAGCT, for which the binding signal was 0.238 relative enrichment.
Turning to AACCTA, the binding signal turned out to be 0.423 relative enrichment.
As for AACATA, the figure is 0.321 relative enrichment; as for CACTTC, 0.726 relative enrichment.
As for CTAATA, the figure is 0.342 relative enrichment; as for ATATTG, 0.448 relative enrichment; as for GACAAA, 0.293 relative enrichment.
As for AACATT, the figure is 0.298 relative enrichment; as for ATAAAA, 0.231 relative enrichment; as for GTTTCC, 0.321 relative enrichment.
Turning to ATACTC, the binding signal was 0.432 relative enrichment.
The figure for GCAACA is 0.23 relative enrichment.
As for ATTTCA, the figure is 0.293 relative enrichment; as for TTGAAA, 0.229 relative enrichment; as for AATATG, 0.282 relative enrichment.
As for ATATTC, the figure is 0.477 relative enrichment; as for ATACCA, 0.401 relative enrichment; as for AACACG, 0.457 relative enrichment.
As to CTGTAA, the binding signal was 0.281 relative enrichment.
In the case of CAGTCA, the binding signal is 0.518 relative enrichment.
Take AATTGT: the binding signal was found to be 0.427 relative enrichment.
As for TATATA, the binding signal amounted to 0.427 relative enrichment.
As for TACCAC, the figure is 0.564 relative enrichment; as for TCCCAA, 0.374 relative enrichment.
The figure for ATGTGC is 0.332 relative enrichment; for ACTCAA it is 0.294 relative enrichment.
The figure for AACAGA is 0.308 relative enrichment; for TATCGA it is 0.449 relative enrichment.
Take ATAGAA: the binding signal stood at 0.4 relative enrichment.
The figure for CTTACA is 0.35 relative enrichment; for GGATAA it is 0.319 relative enrichment.
ACCTTA: the binding signal is 0.322 relative enrichment.
As to ACATAC, the binding signal was determined as 0.334 relative enrichment.
The figure for GTTTCA is 0.278 relative enrichment.
As for CCAATT, the binding signal is 0.305 relative enrichment.
The figure for CTCAAC is 0.306 relative enrichment; for CTTCTG it is 0.655 relative enrichment.
As for ACAGTG, the figure is 0.32 relative enrichment; as for CAAACC, 0.348 relative enrichment.
With AAACGA, the binding signal was found to be 0.433 relative enrichment.
In the case of CCGCTT, the binding signal stood at 0.566 relative enrichment.
The figure for CCACAT is 0.378 relative enrichment; for ACAGAA it is 0.352 relative enrichment; for CTCATT it is 0.311 relative enrichment.
In the case of TCTTAC, the binding signal is 0.583 relative enrichment.
The figure for TTCATG is 0.466 relative enrichment; for ACATGA it is 0.366 relative enrichment; for AAGATT it is 0.302 relative enrichment.
The figure for GCCTTG is 0.432 relative enrichment; for CATTCG it is 0.647 relative enrichment.
With CTCTAA, the binding signal came out at 0.497 relative enrichment.
For TCTAAA, the binding signal worked out at 0.362 relative enrichment.
For the sequence CCTACA, the binding signal worked out at 0.52 relative enrichment.
Consider AATCCG, for which the binding signal was 0.396 relative enrichment.
The figure for ACCACA is 0.308 relative enrichment; for TACAAA it is 0.279 relative enrichment; for GTTTAA it is 0.412 relative enrichment.
As for ACTCGT, the figure is 0.431 relative enrichment; as for ATAGTG, 0.381 relative enrichment.
The figure for ATAACG is 0.234 relative enrichment.
As for TTCTCA, the binding signal is 0.402 relative enrichment.
The figure for CTCAAA is 0.338 relative enrichment; for AGAAAA it is 0.341 relative enrichment; for GGTCAA it is 0.577 relative enrichment.
As for ATCACA, the figure is 0.311 relative enrichment.
The figure for CCGGTT is 0.383 relative enrichment; for TTCCCT it is 0.474 relative enrichment; for AAGCCT it is 0.404 relative enrichment.
With ATTAAC, the binding signal was 0.24 relative enrichment.
With CCCTAA, the binding signal was 0.411 relative enrichment.
The figure for AGCAAC is 0.284 relative enrichment.
On to CCTCAT, for which the binding signal turned out to be 0.455 relative enrichment.
As for ATTAAT, the figure is 0.302 relative enrichment; as for GTAAAA, 0.244 relative enrichment; as for CCAAAC, 0.36 relative enrichment.
As for CGTCTT, the binding signal turned out to be 0.521 relative enrichment.
The figure for CTATCA is 0.419 relative enrichment; for AAACTA it is 0.325 relative enrichment.
As for ATTCGA, the figure is 0.503 relative enrichment.
In the case of ACAAGG, the binding signal was determined as 0.32 relative enrichment.
ACCCAT: the binding signal is 0.43 relative enrichment.
With ACATCT, the binding signal was determined as 0.382 relative enrichment.
On to ATAGCA, for which the binding signal was 0.284 relative enrichment.
As for ACCCTA, the figure is 0.499 relative enrichment.
As for AGCGTA, the figure is 0.542 relative enrichment.
Regarding ACATCC, the binding signal stood at 0.44 relative enrichment.
On to TCGTAA, for which the binding signal was found to be 0.409 relative enrichment.
With AGTAAT, the binding signal stood at 0.428 relative enrichment.
With AAATTG, the binding signal stood at 0.254 relative enrichment.
Take TGCCTT: the binding signal was found to be 0.37 relative enrichment.
As to AGTTTG, the binding signal worked out at 0.37 relative enrichment.
As for CACAAA, the binding signal stood at 0.496 relative enrichment.
As for ACTAAC, the figure is 0.301 relative enrichment; as for AATACC, 0.425 relative enrichment.
The figure for CAAAGG is 0.381 relative enrichment.
AATACT: the binding signal came to 0.328 relative enrichment.
Turning to ATGCAA, the binding signal was determined as 0.311 relative enrichment.
The figure for CTTGAA is 0.459 relative enrichment; for AGCTTG it is 0.361 relative enrichment.
The figure for AGTGAT is 0.481 relative enrichment; for GACTTA it is 0.52 relative enrichment.
Turning to TCAAAA, the binding signal turned out to be 0.256 relative enrichment.
As for TCAATC, the figure is 0.416 relative enrichment; as for AGACAT, 0.369 relative enrichment.
The figure for TCTACA is 0.446 relative enrichment.
Turning to CTTCAA, the binding signal worked out at 0.481 relative enrichment.
Take ATAAGA: the binding signal was 0.307 relative enrichment.
For the sequence CTGATA, the binding signal worked out at 0.36 relative enrichment.
The figure for AGTTAA is 0.271 relative enrichment; for TATCAA it is 0.376 relative enrichment.
In the case of ATAGTA, the binding signal amounted to 0.304 relative enrichment.
As for AAGTAC, the figure is 0.447 relative enrichment; as for GGTAAA, 0.489 relative enrichment; as for ATTCAG, 0.454 relative enrichment.
ACTTTG: the binding signal came out at 0.358 relative enrichment.
The figure for AGATAC is 0.416 relative enrichment.
As for CTTGGT, the figure is 0.411 relative enrichment; as for TATTCA, 0.336 relative enrichment.
Turning to ACTGAA, the binding signal was found to be 0.437 relative enrichment.
